Assay results from the supplement of paper PMC4604168 (melanoma cell lines).
The list shows a part of the results. Many values rest on one well or one pass, so single values are uncertain.

tested on: COLO800; experiment: cell count relative to DMSO control; melanoma cells; higher = more viable cells; conditions: library dose: low library concentration; 72 h
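Further: cell number obtained by counting DAPI-stained nuclei in high-throughput microscope images with image analysis software, screen run in 1,536-well plates.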

Q: COc1ccc(C2=N[C@@H](c3ccc(Cl)cc3)[C@@H](c3ccc(Cl)cc3)N2C(=O)N2CCNC(=O)C2)c(OC(C)C)c1 [Nutlin-3] + C/C(O)=C(\C#N)C(=O)Nc1cc(Br)ccc1Br [LFM-A13] (first compound 0.1 µM, partner dose 2 µM) was tested. Which cell count did it give?
A: 73.8%

Q: With CCCCCCCCCCCCCCCCCCOP(=O)([O-])OC1CC[N+](C)(C)CC1 [Perifosine] + O=C(Oc1ccc([N+](=O)[O-])cc1)N1CCC(C(O)(c2ccc3c(c2)OCO3)c2ccc3c(c2)OCO3)CC1 [JZL184] (first compound 0.4 µM, partner dose 1 µM) as the compound, how does the cell count read?
A: 130%

Q: How did the cell count turn out when CCN(CC)CCNC(=O)c1c(C)[nH]c(/C=C2\C(=O)Nc3ccc(F)cc32)c1C [sunitinib] + Cc1cc(SCc2sc(-c3ccc(C(F)(F)F)c(F)c3)nc2C)ccc1OCC(=O)O [GW0742] (first compound 0.4 µM, partner dose 2 µM) was run?
A: 80.5%

Q: With Nc1nc(F)nc2c1ncn2[C@@H]1O[C@H](CO)[C@@H](O)[C@@H]1O [fludarabine] + C/C(O)=C(\C#N)C(=O)Nc1cc(Br)ccc1Br [LFM-A13] (first compound 0.2 µM, partner dose 2 µM) as the compound, how does the cell count read?
A: 75.6%

Q: Cc1cc(Nc2cc(N3CCN(C)CC3)nc(/C=C/c3ccccc3)n2)n[nH]1 + C/C(O)=C(\C#N)C(=O)Nc1cc(Br)ccc1Br [LFM-A13] (first compound 0.04 µM, partner dose 2 µM) was tested. Which cell count did it give?
A: 99.4%

Q: For NC1(c2ccc(-c3nc4ccn5c(=O)[nH]nc5c4cc3-c3ccccc3)cc2)CCC1 + Cc1cc(SCc2sc(-c3ccc(C(F)(F)F)c(F)c3)nc2C)ccc1OCC(=O)O [GW0742] (first compound 0.4 µM, partner dose 2 µM), which cell count is on record?
A: 108%

Q: How did the cell count turn out when Nc1ncn([C@H]2C[C@H](O)[C@@H](CO)O2)c(=O)n1 [decitabine] + C/C(O)=C(\C#N)C(=O)Nc1cc(Br)ccc1Br [LFM-A13] (first compound 0.1 µM, partner dose 2 µM) was run?
A: 89.8%

Q: How did the cell count turn out when CCCCCCCCc1ccc(CCC(N)(CO)CO)cc1 [fingolimod] + C/C(O)=C(\C#N)C(=O)Nc1cc(Br)ccc1Br [LFM-A13] (first compound 2 µM, partner dose 2 µM) was run?
A: 74.5%

Q: Which cell count does the source give for CC[C@]1(O)C[C@H]2CN(CCc3c([nH]c4ccccc34)[C@@](C(=O)OC)(c3cc4c(cc3OC)N(C=O)[C@H]3[C@@](O)(C(=O)OC)[C@H](OC(C)=O)[C@]5(CC)C=CCN6CC[C@]43[C@@H]65)C2)C1 [vincristine] + Cc1cc(SCc2sc(-c3ccc(C(F)(F)F)c(F)c3)nc2C)ccc1OCC(=O)O [GW0742] (first compound 0.0001 µM, partner dose 2 µM) here?
A: 90.9%

Q: With Cc1ccc(Nc2nccc(N(C)c3ccc4c(C)n(C)nc4c3)n2)cc1S(N)(=O)=O [Pazopanib] + C/C(O)=C(\C#N)C(=O)Nc1cc(Br)ccc1Br [LFM-A13] (first compound 0.4 µM, partner dose 2 µM) as the compound, how does the cell count read?
A: 86.4%

Q: For COc1cc([C@@H]2c3cc4c(cc3[C@@H](O[C@@H]3O[C@@H]5CO[C@@H](C)O[C@H]5[C@H](O)[C@H]3O)[C@H]3COC(=O)[C@H]23)OCO4)cc(OC)c1O [etoposide] + Cc1cc(SCc2sc(-c3ccc(C(F)(F)F)c(F)c3)nc2C)ccc1OCC(=O)O [GW0742] (first compound 0.02 µM, partner dose 2 µM), which cell count is on record?
A: 116%

Q: Which cell count does the source give for Cc1cc(Nc2cc(N3CCN(C)CC3)nc(/C=C/c3ccccc3)n2)n[nH]1 + Cc1cc(SCc2sc(-c3ccc(C(F)(F)F)c(F)c3)nc2C)ccc1OCC(=O)O [GW0742] (first compound 0.04 µM, partner dose 2 µM) here?
A: 85.7%

Q: How did the cell count turn out when Cn1cnc2c(F)c(Nc3ccc(Br)cc3Cl)c(C(=O)NOCCO)cc21 [selumetinib] + C/C(O)=C(\C#N)C(=O)Nc1cc(Br)ccc1Br [LFM-A13] (first compound 0.015 µM, partner dose 2 µM) was run?
A: 83%

Q: Which cell count does the source give for NC(=O)c1ccc(N(C(N)=O)c2c(F)cccc2F)nc1-c1ccc(F)cc1F + C/C(O)=C(\C#N)C(=O)Nc1cc(Br)ccc1Br [LFM-A13] (first compound 0.4 µM, partner dose 2 µM) here?
A: 110%

Q: With O=C(O)[C@@H]1[O][Sb](=[O])([O][Sb]2(=[O])[O][C@H]([C@H](O)CO)[C@H](O)[C@H](C(=O)O)[O]2)[O][C@H]([C@H](O)CO)[C@@H]1O (stereo not given in full) [stibogluconate] + O=C(Oc1ccc([N+](=O)[O-])cc1)N1CCC(C(O)(c2ccc3c(c2)OCO3)c2ccc3c(c2)OCO3)CC1 [JZL184] (first compound 2 µM, partner dose 1 µM) as the compound, how does the cell count read?
A: 87.9%

Q: With Cc1ccc(Nc2nccc(N(C)c3ccc4c(C)n(C)nc4c3)n2)cc1S(N)(=O)=O [Pazopanib] + O=C(Oc1ccc([N+](=O)[O-])cc1)N1CCC(C(O)(c2ccc3c(c2)OCO3)c2ccc3c(c2)OCO3)CC1 [JZL184] (first compound 0.4 µM, partner dose 1 µM) as the compound, how does the cell count read?
A: 74%

Q: CNC(=O)c1cc(Oc2ccc(NC(=O)Nc3ccc(Cl)c(C(F)(F)F)c3)cc2)ccn1 [sorafenib] + O=C(Oc1ccc([N+](=O)[O-])cc1)N1CCC(C(O)(c2ccc3c(c2)OCO3)c2ccc3c(c2)OCO3)CC1 [JZL184] (first compound 0.4 µM, partner dose 1 µM) was tested. Which cell count did it give?
A: 167%

Q: CNC(=O)c1cc(Oc2ccc(NC(=O)Nc3ccc(Cl)c(C(F)(F)F)c3)cc2)ccn1 [sorafenib] + C/C(O)=C(\C#N)C(=O)Nc1cc(Br)ccc1Br [LFM-A13] (first compound 0.4 µM, partner dose 2 µM) was tested. Which cell count did it give?
A: 77%

Q: CCCS(=O)(=O)Nc1ccc(F)c(C(=O)c2c[nH]c3ncc(Cl)cc23)c1F + O=C(Oc1ccc([N+](=O)[O-])cc1)N1CCC(C(O)(c2ccc3c(c2)OCO3)c2ccc3c(c2)OCO3)CC1 [JZL184] (first compound 0.08 µM, partner dose 1 µM) was tested. Which cell count did it give?
A: 85%

Q: How did the cell count turn out when CCCCCCCCc1ccc(CCC(N)(CO)CO)cc1 [fingolimod] + O=C(Oc1ccc([N+](=O)[O-])cc1)N1CCC(C(O)(c2ccc3c(c2)OCO3)c2ccc3c(c2)OCO3)CC1 [JZL184] (first compound 2 µM, partner dose 1 µM) was run?
A: 83.2%

Q: How did the cell count turn out when Cc1cn(-c2cc(NC(=O)c3ccc(C)c(Nc4nccc(-c5cccnc5)n4)c3)cc(C(F)(F)F)c2)cn1 [nilotinib] + O=C(Oc1ccc([N+](=O)[O-])cc1)N1CCC(C(O)(c2ccc3c(c2)OCO3)c2ccc3c(c2)OCO3)CC1 [JZL184] (first compound 0.2 µM, partner dose 1 µM) was run?
A: 109%

Q: For CN(c1ncccc1CNc1nc(Nc2ccc3c(c2)CC(=O)N3)ncc1C(F)(F)F)S(C)(=O)=O + Cc1cc(SCc2sc(-c3ccc(C(F)(F)F)c(F)c3)nc2C)ccc1OCC(=O)O [GW0742] (first compound 0.08 µM, partner dose 2 µM), which cell count is on record?
A: 103%

Q: For C[C@@H](Oc1cc(-c2cnn(C3CCNCC3)c2)cnc1N)c1c(Cl)ccc(F)c1Cl [Crizotinib] + Cc1cc(SCc2sc(-c3ccc(C(F)(F)F)c(F)c3)nc2C)ccc1OCC(=O)O [GW0742] (first compound 0.2 µM, partner dose 2 µM), which cell count is on record?
A: 98.9%

Q: O=c1[nH]nc(Sc2ncc([N+](=O)[O-])s2)n1-c1ccc2c(c1)OCCO2 + Cc1cc(SCc2sc(-c3ccc(C(F)(F)F)c(F)c3)nc2C)ccc1OCC(=O)O [GW0742] (first compound 0.2 µM, partner dose 2 µM) was tested. Which cell count did it give?
A: 102%

Q: For CC[C@]1(O)C[C@H]2CN(CCc3c([nH]c4ccccc34)[C@@](C(=O)OC)(c3cc4c(cc3OC)N(C=O)[C@H]3[C@@](O)(C(=O)OC)[C@H](OC(C)=O)[C@]5(CC)C=CCN6CC[C@]43[C@@H]65)C2)C1 [vincristine] + O=C(Oc1ccc([N+](=O)[O-])cc1)N1CCC(C(O)(c2ccc3c(c2)OCO3)c2ccc3c(c2)OCO3)CC1 [JZL184] (first compound 0.0001 µM, partner dose 1 µM), which cell count is on record?
A: 83.6%

Q: For CC(=O)c1c(C)c2cnc(Nc3ccc(N4CCNCC4)cn3)nc2n(C2CCCC2)c1=O [palbociclib] + C/C(O)=C(\C#N)C(=O)Nc1cc(Br)ccc1Br [LFM-A13] (first compound 0.04 µM, partner dose 2 µM), which cell count is on record?
A: 84.1%

Q: CN(c1ncccc1CNc1nc(Nc2ccc3c(c2)CC(=O)N3)ncc1C(F)(F)F)S(C)(=O)=O + C/C(O)=C(\C#N)C(=O)Nc1cc(Br)ccc1Br [LFM-A13] (first compound 0.08 µM, partner dose 2 µM) was tested. Which cell count did it give?
A: 93.5%

Q: Which cell count does the source give for O=C(Nc1cc(C(F)(F)F)cc(C(F)(F)F)c1)c1cc(Cl)ccc1O + C/C(O)=C(\C#N)C(=O)Nc1cc(Br)ccc1Br [LFM-A13] (first compound 0.016 µM, partner dose 2 µM) here?
A: 114%

Q: N#CC[C@H](C1CCCC1)n1cc(-c2ncnc3[nH]ccc23)cn1 [ruxolitinib] + C/C(O)=C(\C#N)C(=O)Nc1cc(Br)ccc1Br [LFM-A13] (first compound 1 µM, partner dose 2 µM) was tested. Which cell count did it give?
A: 109%

Q: How did the cell count turn out when O=C(/C=C/c1cccnc1)NCCCCC1CCN(C(=O)c2ccccc2)CC1 + C/C(O)=C(\C#N)C(=O)Nc1cc(Br)ccc1Br [LFM-A13] (first compound 0.01 µM, partner dose 2 µM) was run?
A: 28.2%
